Screen size: about 45,000 compounds; about 200 (0.44%) were called active. About 7% were inconclusive and are not listed. Calls follow the shape of the dose curve; as a rule, active = well fitted activation curve with a large enough effect; inconclusive = small, poorly fitted or top-dose-only effect; inactive = no such curve, though single readings can be large or run the other way. The list shows a part of the results.
Test: qHTS of TDP-43 Inhibitors: NCGC Sytravon Library Screen; also: nearly all actives have a fitted effect of over 55% in size; as to growth rescue (activation): 0% is about no effect
Conditions: yeast TDP-43 toxicity rescue, BacTiter-Glo growth, 24 h; series mostly up to 46.1 µM; growth rescue (activation): at the top concentration
Summary of the method: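 TDP-43-expressing yeast, pregrown in raffinose, seeded at OD600 0.02 in galactose medium with compound for 24 hr at 30 deg C. Growth read by BacTiter-Glo luminescence, so rescue of toxicity appears as activation.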
Potency is read from the fitted curve at half-maximal effect.

Structure (SMILES) | growth rescue (activation) | Potency
CC(=O)Nc1ccc(NC(=O)C(C)N(C)CC(=O)Nc2ccccc2Br)cc1 (stereo not drawn) | inactive: 2.86% | 
NC(=O)Nc1ccc(C(=O)OCC(=O)c2c[nH]c3ccccc23)cc1 | inactive: 2.63% | 
CO/N=C/CC(=O)c1ccc(OC)cc1 | inactive: 4.44% | 
CC(=O)NC(c1ccccc1)c1c(O)ccc2ccccc12 (stereo not drawn) | inactive: 12.6% | 
Cc1ccc(OCCN(C)C(=O)c2cc(COc3ccc(F)cc3F)on2)cc1 | inactive: 14.5% | 
CCC(CC)C(=O)Nc1c2c(nn1-c1ccc(F)cc1)CS(=O)(=O)C2 | inactive: 4.36% | 
CC1CCCC(C)N1C(=O)CSc1nc2c(c(=O)n(C)c(=O)n2C)n1C (stereo not drawn) | inactive: -1.28% | 
CN(C)C(CNC(=S)Nc1cccc(Cl)c1)c1cccnc1 (stereo not drawn) | inactive: -1.99% | 
Cc1ccc(CN2CCNC(=O)C2CC(=O)N(C)C(C2CC2)C2CC2)o1 (stereo not drawn) | inactive: -6.44% | 
Cc1ccc(CN2CCN(Cc3ccc(O)cc3)CC2CCO)o1 (stereo not drawn) | inactive: 7.31% | 
COCC1CCCN(Cc2cn[nH]c2-c2cc3ccccc3o2)C1 (stereo not drawn) | inactive: 0.29% | 
CCOC(=O)C(C)Sc1nc2c(cnn2-c2ccc(F)cc2)c(=O)[nH]1 (stereo not drawn) | inactive: 6.61% | 
Cc1cc(C)c2nc(SCC(=O)Nc3cc(C)on3)c(C)cc2c1 | inactive: -7.97% | 
Cc1ccccc1-c1cc2nc(NCCOc3ccccc3)n(C)c(=O)c2s1 | inactive: 11.6% | 
C=CCN1C(=O)C(CCCC)NC1=S (stereo not drawn) | inactive: 11.2% | 
COc1ccc(NC(=O)N2CCC(CO)(CC3CCCCO3)CC2)c(OC)c1 (stereo not drawn) | inactive: 29.6% | 
COCCCN1C(=O)C(=O)/C(=C(/O)c2ccc(OC)cc2)C1c1ccc(O)c(OC)c1 (stereo not drawn) | inactive: -11.1% | 
CCCC(C)NC(=O)COc1ccc(S(=O)(=O)N2CCCC2)cc1 (stereo not drawn) | inactive: 7.49% | 
Cc1ccc(CNCCCSc2ncccn2)cc1 | inactive: -1.13% | 
COCCNC(=O)C1CCCN(C(=O)c2ccc3sccc3c2)CC1 (stereo not drawn) | inactive: -0.657% | 
CCN(CC)S(=O)(=O)c1ccc(N2CCOCC2)c(NS(=O)(=O)c2ccc(C)c(C)c2)c1 | inactive: -5.4% | 
O=C1/C(=C/c2cccs2)Cc2ccccc21 | inactive: 35.1% | 

Structure (SMILES) | growth rescue (activation) | Potency
CC(C)CNC(=O)c1c(F)c(F)c(F)c(F)c1F | inactive: 6.32% | 
COc1ccccc1NS(=O)(=O)c1cc(NC(=O)c2ccccc2[N+](=O)[O-])ccc1N1CCOCC1 | inactive: -3.55% | 
O=C(NNC(=O)c1ccc(S(=O)(=O)N2CCCCC2)cc1)c1ccc(F)cc1 | inactive: 1.52% | 
Cc1ccc(S(=O)(=O)N(CC(=O)Nc2ccccc2-c2ccccc2)c2ccc(C)cc2C)cc1 | inactive: -2.17% | 
Cc1ccc(NC(=S)N(Cc2cccc(Br)c2)CC2CCC(C(=O)O)CC2)cc1 (stereo not drawn) | inactive: 13.7% | 
Cc1cc(=O)[nH]c(N2CCCC2)n1 | inactive: 4.1% | 
COc1ccc(/C=N/NC(=O)c2ccncc2)cc1OC | inactive: -4.4% | 
CCOc1ccc(C(=O)NC(C(=O)NCc2cccnc2)C(C)C)cc1 (stereo not drawn) | inactive: -4.63% | 
Nc1nnc(CSCc2cccc(Br)c2)s1 | inactive: -4.07% | 
N#C/C(=C\c1ccc(-c2ccccc2[N+](=O)[O-])o1)C(=O)Nc1nc(-c2cccs2)cs1 | inactive: -14.9% | 
Cc1ccc(-c2nc(-c3ccccn3)no2)cc1Cl | inactive: 9.64% | 
CCCOc1ccc(F)cc1-c1cc(C(=O)Nc2ccccc2)[nH]n1 | inactive: 27.9% | 
CN(C)S(=O)(=O)N1CCC(Oc2ccc(C(=O)NCCc3cscn3)cc2)CC1 | inactive: 6.64% | 
CCCCSCc1nc2ccccn2c1Br | inactive: 22.1% | 
C=CCO/N=C(/CCC)C1=C(N)CC(C)(C)CC1=O | inactive: 8.51% | 
O=C(CN1CCCCCC1)Nc1ccc([N+](=O)[O-])cc1Br | inactive: 2.47% | 
Cc1ccc(NC(=O)C(OC(=O)c2ccc(NC(N)=O)cc2)c2ccccc2)cc1Cl (stereo not drawn) | inactive: -1.16% | 
O=C(Nc1cccnc1)c1cccc(S(=O)(=O)N2CCCC2)c1 | inactive: -4.69% | 
CC(=O)CSc1nnc(-c2ccc(S(=O)(=O)N3CCCC3)cc2)n1C | inactive: -4.76% | 
CC(CC(=O)O)NCC1COc2ccccc2O1 (stereo not drawn) | inactive: 15.1% | 
O=C(O)c1cc(N/N=C/c2ccc3c(c2)OCO3)ccc1Cl | inactive: 14.8% | 
O=C(N/N=C/c1ccccn1)c1cc(C2CC2)nc2ccccc12 | inactive: 10.5% | 

Structure (SMILES) | growth rescue (activation) | Potency
Cc1ccc2nc(NC(=O)c3cc(-c4ccco4)nc4ccccc34)sc2c1 | inactive: -12% | 
CC(=O)Nc1ccc(C(=O)NNC(=O)Cc2ccccc2)cc1 | inactive: 6.06% | 
CCOc1cc(-c2noc(CCCC(=O)NC3CCCCC3)n2)ccc1OC | inactive: 20% | 
CC1(C)CN=C(N(Cc2ccccc2)C(=O)Nc2ccccc2)S1 | inactive: -6.48% | 
O=C(Nc1ccccc1)N1CCC(C(=O)N2CCN(c3ccccc3F)CC2)CC1 | inactive: 10.4% | 
Cc1ccccc1OCc1nc2c3cnn(-c4ccccc4Br)c3ncn2n1 | inactive: 7.7% | 
COc1ccc(CC(=O)NNC(=O)c2cccs2)cc1 | inactive: 12.6% | 
COc1ccc(C(=O)NC(=S)Nc2ccc(N3CCCC3)cc2)cc1 | inactive: -1.72% | 
CN1CCN(c2oc(-c3ccccc3)nc2S(=O)(=O)c2ccccc2)CC1 | inactive: 2.11% | 
CC(=O)OC[C@@H]1CN(Cc2ccccc2)C[C@H](n2cnc3c(NCc4ccco4)ncnc32)O1 | inactive: 3.86% | 
COc1ccc(C(NC(=O)C2CCCCC2)c2c(O)ccc3ccccc23)cc1 (stereo not drawn) | inactive: 3.64% | 
CCc1ccc[n+](-c2[nH]c(=O)sc2/C=N/NC([S-])=Nc2ccccc2)c1 | inactive: 8.11% | 
Cc1ccc(N(C(=O)Nc2ccccc2)C2=NCCC2)cc1 | inactive: 2.9% | 
CCC(=Nc1ccccc1OC)C1=C(O)CC(c2ccccc2)CC1=O (stereo not drawn) | inactive: -0.948% | 
O=c1cnnc(Nc2ccccc2F)[nH]1 | inactive: -11.1% | 
Cc1c(NC(=O)c2ccc(Cl)s2)c(=O)n(-c2ccccc2)n1C | inactive: 10.7% | 
COCCCNC(=O)C1CCN(c2nnc(-n3cccc3CNc3ccc(C)cc3)s2)CC1 | inactive: 7.37% | 
COc1ccc(CC(=O)Nc2ccc(F)c(S(=O)(=O)N3CCOCC3)c2)cc1 | inactive: 3.51% | 
COc1ccc(Cl)cc1NC(=O)CSc1nc2sccc2c(=O)[nH]1 | inactive: 7.42% | 
O=C(O)c1ccccc1N(Cc1ccccc1)C(=O)CO/N=C/c1ccccc1 | inactive: -21.8% | 
O=C(COC(=O)c1c(Cl)ccc(Cl)c1Cl)NCC1CCCO1 (stereo not drawn) |  | active: 14.1 µM
CCOc1ccc(-c2c(C(=O)N/N=C/c3ccc(O)cc3)nnn2-c2nonc2N)cc1 | inactive: 13.8% | 

Structure (SMILES) | growth rescue (activation) | Potency
OC[C@@H]1CN(Cc2ccco2)C[C@H](n2cnc3c(NC4CC4)ncnc32)O1 | inactive: 19.6% | 
Cc1ccc(NC(=O)CNS(=O)(=O)c2ccc(F)cc2)cc1C | inactive: 5.8% | 
Cc1sc2ncn(CC(=O)N3CCC(C(N)=O)CC3)c(=O)c2c1S(=O)(=O)N1CCOCC1 | inactive: 12.5% | 
Cn1ccnc1SCC(=O)c1ccc(C#N)cc1 | inactive: -1.26% | 
O=C1c2ccccc2C(=O)N1c1ccc(Cc2ccncc2)cc1 | inactive: 2.36% | 
COc1ccc(N(C(=O)c2cnccn2)C(C(=O)NC2CCCCC2)c2ccccc2)cc1 (stereo not drawn) | inactive: -24.6% | 
COc1ccccc1NS(=O)(=O)c1cc(NC(=O)c2ccc3ccccc3n2)ccc1Cl | inactive: 18.1% | 
CS(=O)(=O)N1N=C(c2ccccc2)CC1c1ccc2c(c1)OCO2 (stereo not drawn) | inactive: 10.2% | 
CC(=O)Nc1ccc(NC(=O)c2sc3nc4n(c(=O)c3c2C)CCCCC4)cc1 | inactive: 6.05% | 
COc1ccc(NC(=O)CC23CC4CC(C2)CC(n2nnc(C)n2)(C4)C3)cc1 | inactive: 8.85% | 
COc1ccc(-c2cnc(C(O)c3ccc(OC)c(F)c3)[nH]2)cc1 (stereo not drawn) | inactive: 8.44% | 
COc1cccc(NC(=O)COc2ncnc3sc(C)c(C)c23)c1 | inactive: -6.93% | 
CCCc1nnc(NC(=O)CS(=O)(=O)c2ccc(C)cc2)s1 | inactive: -1.14% | 
CCc1nc2c(OCCOc3ccccc3)cccn2c1N(C)C(=O)c1ccc(C)cc1 | inactive: 7.24% | 
O=C(CSc1ccc2ccccc2c1)Nc1nc2ccccc2[nH]1 | inactive: 4.66% | 
CCOc1cc(/C=N/NC(=O)C(=O)NCc2cccnc2)ccc1O | inactive: 1.73% | 
CN(C(=O)CSc1nnc(-c2c[nH]c3ccccc23)o1)C1CCS(=O)(=O)C1 (stereo not drawn) | inactive: 3.03% | 
Cc1ccc(OCCn2c3ccccc3n3nc(C)c(=O)nc23)cc1 | inactive: 23.2% | 
Cc1cc(N(C)N)nc(NC(=O)NS(=O)(=O)c2ccccc2Cl)n1 | inactive: 13.9% | 
CCc1ccc(C(=O)/C=C/Nc2ccc(S(=O)(=O)Nc3cnc4ccccc4n3)cc2)cc1 | inactive: 18.8% | 
COc1cccc2cc(C(=O)N3CCCCC3C)c(=O)oc12 (stereo not drawn) | inactive: -1% | 
Cc1ccc(/C=C/C(=O)Nc2nnc(C)s2)o1 | inactive: 20.5% | 

Structure (SMILES) | growth rescue (activation) | Potency
CC(OC(=O)CN(C)S(=O)(=O)c1ccc(Cl)cc1)C(=O)Nc1ccc(N2CCOCC2)cc1 (stereo not drawn) | inactive: 14.8% | 
COc1cc(C(=O)N/N=C2\CCS(=O)(=O)c3ccc(F)cc32)cc(OC)c1OC | inactive: 4.19% | 
Cc1ccc(NC(=O)CN2CCCC2c2cccn2C)cc1C (stereo not drawn) | inactive: -7.17% | 
CCC(CC)NC(=O)COC(=O)c1ccc(OCc2ccc(C(C)=O)cc2OC)c(OC)c1 | inactive: 15.2% | 
Cn1c(N)c(N2CCCCC2)c(=O)n(CC(=O)Nc2ccc(Cl)c(Cl)c2)c1=O | inactive: -11.4% | 
O=C(/C=C/c1ccco1)Nc1scc(-c2ccccc2)c1C(=O)O | inactive: -53.1% | 
CC(C)(C)NC(=O)c1ccc(NC(=O)CSc2ccccc2)cc1 | inactive: 11.1% | 
Cc1nn(CCOc2ccccc2Cl)c(C)c1[N+](=O)[O-] | inactive: 0.521% | 
COc1cccc(NC(=O)CSc2nc(C3CC3)nc3ccccc23)c1 | inactive: 18.8% | 
O=C(CSc1nc2ncccc2[nH]1)c1cccc([N+](=O)[O-])c1 | inactive: 11.5% | 
O=C(CNC(=O)c1cccs1)c1ccc(Cl)cc1 | inactive: 12.6% | 
O=C(COC(=O)c1cccs1)Nc1cccc(S(=O)(=O)N2CCOCC2)c1 | inactive: 12.5% | 
COc1ccccc1C(=O)NCc1ccccn1 | inactive: -1.18% | 
COc1ccc2cc(S(=O)(=O)N3CCCC3)ccc2c1 | inactive: 35.5% | 
COC(=O)c1sc(NC(=O)CSc2nc3nc(C)cc(C)n3n2)c(C(=O)OC)c1C | inactive: 7.07% | 
CC12CNCC(C)(CN(C3(O)C(=O)Nc4ccc(Br)cc43)C1)C2=O (stereo not drawn) | inactive: 12.1% | 
O=C(CN1C(=O)NC(c2ccccc2)(c2ccccc2)C1=O)Nc1cccnc1Cl | inactive: 13.4% | 
OC(c1cccc(CN2CCCCC2)c1)c1ncc(-c2cccc3ccccc23)[nH]1 (stereo not drawn) | inactive: 21.6% | 
COc1ccc(NC(=O)c2cc3c(CO)cnc(C)c3oc2=Nc2cc(OC)cc(OC)c2)cc1 | inactive: -1.03% | 
CCN(CC)C(=O)C1c2ccccc2Oc2ccccc21 | inactive: 18.2% | 

From PubChem BioAssay AID1347073 (National Center for Advancing Translational Sciences (NCATS), 2019)
